# Reference: article PMC10668032
# The list shows a part of the results. At the low end of the ranking the order means little.
# Target: SIX1-Q177R homeodomain (UniProt Q15475)
# Assay: universal protein binding microarray
# Conditions: Universal all-10-mer PBM (8x60K, AMADID 030236), 300 nM GST-tagged protein, Alexa Fluor 488 anti-GST; buffer, salt, pH and temperature not stated; high values mean tight binding; most listed sequences are background and not binding sites; double strand, one strand shown
row,Sequence,binding signal [E-score]
1,GCACGGCC,0.0152
2,CCCCCTCA,0.223
3,GAGCTATA,-0.0682
4,AGATAGTA,-0.0707
5,ATAGTGCC,0.0545
6,ATATATGG,0.0341
7,CGCACAGA,-0.236
8,GAGGAGGA,-0.171
9,AGAAACTC,-0.0973
10,GTAGGCTA,0.0673
11,AAGCTTAC,-0.102
12,AGCGGTTG,-0.0473
13,AAGGGACG,-0.0234
14,AAATAAGA,-0.138
15,AATGTTAG,-0.208
16,TCCCCAAA,-0.00853
17,CCTATTCA,-0.123
18,ATTTTAAA,-0.156
19,CAATTAAA,-0.129
20,TGTCCGAA,-0.0173
21,TACGTCCA,-0.203
22,AAATAGGC,-0.0886
23,GTATCACA,0.3
24,CACAGCCC,-0.103
25,AGGCAGAT,-0.143

row,Sequence,binding signal [E-score]
1,ACGAGCGC,-0.0849
2,CTTTACAC,0.431
3,CAGAGCGA,-0.228
4,CGGAGTAA,0.266
5,CCATCCGG,0.116
6,ACTCCTAA,0.126
7,AATGTTCG,-0.203
8,CTTTAGTA,-0.111
9,CCGCATGA,-0.138
10,CCGCCAGC,0.0115
11,CGACTGAA,-0.259
12,CAGTATAC,0.11
13,AACACGAT,0.358
14,ATCACTTA,-0.101
15,CATAATGA,-0.0778
16,TACGACAA,-0.0084
17,CGACTAGA,0.042
18,ATCCTGGA,0.029
19,AGCCGGCA,-0.167
20,ATTGCCTC,0.00981
21,GAACCGGA,0.0287
22,CATGCAGA,0.0429
23,GCGCCCCA,-0.168
24,GCACAAGA,-0.1
25,GCACTATA,0.191

row,Sequence,binding signal [E-score]
1,ACGTGCGA,-0.112
2,GTAAACAA,0.00205
3,ATAGACTC,-0.126
4,ACCGAGAT,0.105
5,CCGTCAGG,0.00827
6,GCGGGCAC,0.0445
7,GGCCATTA,-0.0716
8,CCGTTCTC,-0.117
9,CACAAAAG,-0.146
10,CCATTTGA,0.0118
11,CCGCACAA,-0.164
12,ACGCACTC,0.108
13,ACGAGGTC,0.0594
14,AAGGCCCC,-0.161
15,GATCGACA,0.0764
16,GTAAGTTA,0.00332
17,ACCCACGG,0.145
18,ATCGCGGG,0.167
19,GCAACGAC,-0.0904
20,CCAATAGC,0.0132
21,ACCAACTG,-0.0355
22,GGTGTTAC,0.474
23,CCGGAGCG,-0.0583
24,CCATCCTA,-0.18
25,CCACGGGA,0.0285

row,Sequence,binding signal [E-score]
1,AAGCCCGG,0.0254
2,GCTATCCC,0.0222
3,ATACCCCC,0.364
4,AAGAGCAC,0.0766
5,CGCCCTGC,-0.0563
6,AGTAAACC,0.101
7,CCTTTCGA,-0.0929
8,AGGATGTC,-0.0186
9,TATGTTCA,-0.0544
10,CTGGCATA,0.0828
11,AGTGGAGA,-0.181
12,ACTGGTAG,-0.0479
13,CTAACTAC,0.245
14,AGCCTGAG,-0.11
15,TAAATCCA,-0.222
16,CTGCGTAA,-0.27
17,AAAACAAT,-0.228
18,GCTGCATA,-0.197
19,GTTACCTA,0.115
20,TACCCGGA,0.247
21,GAAGCAGA,-0.294
22,AATCCAGA,-0.145
23,ATGCTTAG,0.0707
24,TCTGGCCA,-0.077
25,CATCGTCG,-0.163

row,Sequence,binding signal [E-score]
1,GCCCGTAA,-0.197
2,GTGGGTTA,0.0574
3,CAAGTTGG,-0.118
4,GATAATGA,0.113
5,CAACCCGA,0.0652
6,CTTTGTAA,-0.0489
7,AGCATGCG,-0.151
8,ACGTGGGC,0.0136
9,ACAAACCA,-0.191
10,ATAATAGA,-0.172
11,AAGGGATA,0.0608
12,CAGCGTAC,0.0506
13,CTTTCGCA,-0.198
14,AGCTATGC,-0.22
15,AGGACGGA,-0.137
16,CTGAGTAC,0.0662
17,ATTTCAAC,-0.134
18,CGGGATCC,0.209
19,ACTTGATC,-0.0158
20,AGGTTTTG,-0.187
21,CACACTGC,0.258
22,GTGATAAC,0.132
23,CGCTCCAC,-0.0875
24,TAACTCAA,-0.227
25,CAGGGGGA,0.00041

row,Sequence,binding signal [E-score]
1,AATTATCG,-0.174
2,TACTGAAA,-0.177
3,CGAATTGC,-0.14
4,GAGTCCAA,0.0702
5,CCTAATAA,-0.116
6,AAACAATG,-0.178
7,ACAGAAAT,-0.0883
8,GTTTTGAA,-0.092
9,GAAGCAGC,-0.114
10,ACATGACC,-0.0485
11,AATCTATG,-0.109
12,CCTATAGA,-0.054
13,CATAAGAA,-0.0532
14,ACGCGAAT,0.0847
15,CAGTACCA,-0.0401
16,CCCGGGGC,0.0865
17,CCAACTGA,0.0757
18,ACGTCGAC,-0.136
19,ACGGCATG,0.00626
20,GCCGGCAA,-0.0815
21,GATCATCA,-0.0853
22,AGTTGTCA,-0.0878
23,AATATAGA,-0.0119
24,AACGAGTG,0.189
25,ATATCCCA,0.013

row,Sequence,binding signal [E-score]
1,GATTGAAC,0.162
2,CATTCCCA,-0.115
3,AGCCGGAA,-0.0552
4,CGCAAAAG,-0.195
5,CGCAAGAG,-0.194
6,CGCTTTGC,-0.155
7,AACATTCT,-0.287
8,TACCTCAA,-0.0693
9,CTGGCCTC,-0.259
10,GAGGCTTA,-0.137
11,CGCGAGGA,-0.0565
12,CAAGCGGG,0.0523
13,AACTCACT,-0.077
14,ATACTTCC,-0.0553
15,AGATACTA,-0.0723
16,ACGTGGAT,-0.0492
17,GTAGAAGA,0.102
18,AAAAACCC,0.0477
19,CAACCGCG,0.0971
20,CTACCATC,-0.118
21,GACGTAAC,-0.0265
22,ATGACTCC,0.273
23,ATGCAAGC,-0.145
24,ATCTTATC,-0.108
25,GCAGTGAC,0.0089

row,Sequence,binding signal [E-score]
1,ACAAAAAC,-0.0424
2,CGCCTGTA,-0.163
3,GTTTCCCA,0.0185
4,TAAACGTA,-0.257
5,ACTGTGCC,-0.171
6,ATGTGCAG,-0.155
7,AGGTTCCA,-0.0194
8,ACGAGCAG,0.0391
9,CGGCAAAG,-0.143
10,GCACGCCC,-0.0238
11,ACGAGCGA,-0.0289
12,GCGACAGA,-0.124
13,ATTCGTAA,-0.159
14,ACCTAGGT,0.157
15,AATACGAC,-0.0222
16,AACGCCGT,0.159
17,ACTGATCA,-0.066
18,GCTAATCA,-0.0485
19,TATTTTCA,-0.0239
20,CCATAACC,-0.0965
21,ATGTGCGG,0.0998
22,GTAGTGAA,-0.0315
23,ATCAGCAA,-0.185
24,ACTGTGAT,-0.0176
25,ACACATCT,0.144

row,Sequence,binding signal [E-score]
1,AGACGCAT,-0.143
2,GGAGAATA,0.193
3,AATAAGAC,-0.142
4,ATATCGTA,-0.126
5,ACGATAGC,-0.159
6,GCGGGGAC,0.0448
7,CGTGAGCC,-0.188
8,AATCGAGG,-0.0638
9,AAGTTTCT,-0.19
10,AGCCGTGA,-0.158
11,AGTTCGTC,-0.0906
12,CACAAGCG,0.0318
13,AAACTTTC,-0.304
14,ACACATAA,0.18
15,GACGATGA,-0.23
16,CATCATGC,-0.114
17,CCTTAGGA,-0.0121
18,CACCCGAA,0.276
19,GCAATTAC,-0.0877
